# Reference: PubChem BioAssay AID1508642 (National Center for Advancing Translational Sciences (NCATS), 2021)
# Hit rate of the full screen: of about 43,000 compounds, about 200 (0.47%) were called active. About 12% were inconclusive and are not listed. Calls follow the shape of the dose curve; as a rule, active = well fitted cell-killing curve with a large enough effect; inconclusive = small, poorly fitted or top-dose-only effect, or effect the other way; inactive = flat fitted curve, though single readings scatter. The list shows a part of the results.
# Assay: Cell viability qHTS assay in S16 Pmp22-F2sN cells; also: nearly all actives have a fitted effect of over 65% in size
# Conditions: S16 Pmp22-F2sN Schwann cells viability, CellTiter-Glo, 24 h; series mostly up to 57.5 µM; activity change, negative = cytotoxicity: at the top concentration
# Procedure, shortened: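 S16 Pmp22-F2sN Schwann cells (500-1,000/well) in phenol-red-free DMEM with 10% FBS received 23 nL compound by pin tool for 24 h at 37 °C. Viability was then read as CellTiter-Glo luminescence after 15 min at room temperature.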
# % is scaled to controls: 0 for no effect and ±100 for the full control effect.
row,SMILES,"activity change, negative = cytotoxicity"
1,CC(C)Cn1c(=O)c2ccccc2n2c(-c3cccc(Cl)c3)nnc12,inactive: 6.73%
2,COc1ccc(Cl)c(Cn2c(NCCN)nc3c2c(=O)n(C)c(=O)n3C)c1,inactive: -0.141%
3,COc1ccc(C(=O)NCc2nnnn2-c2ccc(C)c(C)c2)cc1,inactive: -11.6%
4,O=C(NNc1ncnc2c1cnn2-c1ccccc1)c1cccc(Cl)c1,inactive: 6.62%
5,Cc1cc(Nc2cccc(Cl)c2C)n2nc(Cc3ccccc3)nc2n1,inactive: -14.9%
6,CCN(CC)C(=O)CSc1nc2cc3c(cc2c(=O)n1Cc1ccc(C(=O)NCCc2ccc(OC)c(OC)c2)cc1)OCO3,inactive: 6.1%
7,CCOc1ccccc1NC(=O)Cn1c(=O)n(Cc2ccccc2)c(=O)c2c(C)c(C(=O)N(C)C)sc21,inactive: 5.8%
8,COc1cc(Cl)c(C)cc1NC(=O)c1cn(CC(C)C)c(=O)c2cc(OC)c(OC)cc12,inactive: 3.9%
9,COc1cc(CN(CC2CCCO2)C(=O)c2ccccc2F)cc(OC)c1OC (configuration not stated),inactive: 22.5%
10,CC(C)OCCCNC(=O)CCCn1c(SCC(=O)c2ccc(Br)cc2)nc2c(sc3ccccc32)c1=O,inactive: 23%
11,CC(NC(=O)c1ccccc1)c1nc2ccccc2n1Cc1ccc(Cl)cc1 (configuration not stated),inactive: 0.455%
12,CCC(C(=O)OCc1cc(=O)n2nc(CCOC)sc2n1)c1ccccc1 (configuration not stated),inactive: -8.1%
13,Cc1ccccc1NC(=O)c1nc(-c2ccncc2)no1,inactive: -1.23%
14,COc1cccc(N2CCN(c3nc4ccc(C(=O)c5ccccc5)cc4n4c(C)nnc34)CC2)c1,inactive: 7.29%
15,Cc1ccc(NC(=O)Cn2c(CCC(=O)O)ccc2-c2cccs2)cc1,inactive: 2.15%
16,Cc1ccc(-n2ncc(C(=O)Nc3ccc(C)c(F)c3)c2C2CCN(C(=O)OC(C)(C)C)CC2)cc1C,inactive: 0.518%
17,CCOc1cc(C2c3c(oc4ccccc4c3=O)C(=O)N2Cc2ccc3c(c2)OCO3)ccc1O (configuration not stated),inactive: 5.67%
18,Cc1ccc(CNC(=O)CCCCn2c(=O)c3ccccc3n(Cc3ccc(Cl)cc3)c2=O)cc1,inactive: 7.43%
19,Cc1nc2sc(C(=O)NCc3ccc(Cl)cc3)c(NC(=O)c3ccccc3)c2c(C)c1C,inactive: 0.278%
20,O=C(Nc1ccc2nc(SCC(=O)N3CCCC3)sc2c1)c1ccc(F)cc1,inactive: 6.04%
21,Cc1ccc(NC(=O)NCc2cccn2Cc2ccccc2)cc1F,inactive: 2.65%
22,Cc1ccc(-c2cn3c(n2)sc2cc(C(=O)N4CCCCC4)ccc23)cc1,inactive: -11.4%
23,Cc1cc(C)c2c(=O)cc(C(=O)Nc3ccc(S(=O)(=O)Nc4nc(C)cc(C)n4)cc3)oc2c1,inactive: 5.63%
24,COC(=O)C(C)Sc1nc2c([nH]c3ccccc32)c(=O)n1-c1ccc(OC)cc1 (configuration not stated),inactive: 20.8%
25,COc1ccc(OC)c(NC(=O)c2csnn2)c1,inactive: -0.861%
26,CCOc1ccccc1-c1nnc(SCc2ccc(Cl)cc2)o1,inactive: -1.53%
27,COCCCNC(=O)c1cc(-c2cccnc2)nc2ccccc12,inactive: -0.0657%
